Data: patent US10172824B2, “Crystal forms of scutellarin aglycone and preparation thereof” (YUNNAN INSTITUTE OF MATERIA MEDICA, priority 2014, dated 2019)

Test: Solubility of crystal forms in isopropanol
Type: physicochemical

SMILES: O=c1cc(-c2ccc(O)cc2)oc2cc(O)c(O)c(O)c12 [crystal form A, 5,6,7-trihydroxy-2-(4-hydroxyphenyl)-4H-benzopyran-4-one]
- solubility in isopropanol (rank order): crystal form A>crystal form D>crystal form E
